Reference: the supplement of paper PMC4967469

Assays:
Test in all cases: Viability of human cancer cell lines after 72 h of drug (GDSC screen)
Temsirolimus = compound: CO[C@H]1C[C@@H]2CC[C@@H](C)[C@@](O)(O2)C(=O)C(=O)N2CCCC[C@H]2C(=O)O[C@H]([C@H](C)C[C@@H]2CC[C@@H](OC(=O)C(C)(CO)CO)[C@H](OC)C2)CC(=O)[C@H](C)/C=C(\C)[C@@H](O)[C@@H](OC)C(=O)[C@H](C)C[C@H](C)/C=C/C=C/C=C/1C [Temsirolimus]; details: top dose 0.2 µM
Method: (§1)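 Human cancer cell lines in 384-well plates, medium with 10% serum, drug for 72 h over a 256-fold dose range (nine 2-fold or five 4-fold steps up to the top dose). Adherent lines were fixed and stained with the nucleic acid dye Syto60, suspension lines read with resazurin; signal relative to control wells, capped at 0 and 100%. One two-parameter sigmoid per drug and line, fitted in a mixed model over all curves with the slope shared within a line.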

SL 0101-1 = compound: CC(=O)O[C@@H]1[C@@H](OC(C)=O)[C@@H](O)[C@H](Oc2c(-c3ccc(O)cc3)oc3cc(O)cc(O)c3c2=O)O[C@H]1C [SL 0101-1]; details: top dose 10 µM; top dose inferred
Method: as §1

XMD15-27 = compound: C=CC(=O)Nc1ccc(C(=O)c2sc(Nc3ccc(N4CCN(C)CC4)cc3OC)nc2N)cc1 [XMD15-27]; details: top dose 10.24 µM; top dose inferred
Method: as §1

Cell Line | AUC (Temsirolimus) | IC50 (Temsirolimus) | AUC (SL 0101-1) | IC50 (SL 0101-1) | AUC (XMD15-27) | IC50 (XMD15-27)
NCI-H1792 (lung adenocarcinoma, adherent) | 0.88 | 0.172 µM | 0.987 | > 10 µM | 0.981 | > 10.2 µM
NCI-H1836 (small cell lung carcinoma, suspension) | 0.979 | > 0.2 µM | 0.988 | > 10 µM | 0.988 | > 10.2 µM
NCI-H1838 (lung adenocarcinoma, adherent) | 0.896 | > 0.2 µM | 0.963 | > 10 µM | 0.984 | > 10.2 µM
NCI-H1869 (lung squamous cell carcinoma, adherent) | 0.803 | 0.114 µM | 0.982 | > 10 µM | 0.983 | > 10.2 µM
NCI-H1876 (small cell lung carcinoma, adherent) | 0.937 | > 0.2 µM | 0.987 | > 10 µM | 0.987 | > 10.2 µM
NCI-H1944 (lung adenocarcinoma, adherent) | 0.773 | 0.0833 µM | 0.985 | > 10 µM | 0.968 | > 10.2 µM
NCI-H1975 (lung adenocarcinoma, adherent) | 0.733 | 0.0647 µM | 0.983 | > 10 µM | 0.964 | > 10.2 µM
NCI-H1993 (lung adenocarcinoma, adherent) | 0.976 | > 0.2 µM | 0.982 | > 10 µM | 0.983 | > 10.2 µM
NCI-H2023 (lung adenocarcinoma, adherent) | 0.799 | 0.125 µM | 0.944 | > 10 µM | 0.979 | > 10.2 µM
NCI-H2052 (mesothelioma, adherent) | 0.96 | > 0.2 µM | 0.982 | > 10 µM | 0.958 | > 10.2 µM
NCI-H2081 (small cell lung carcinoma, suspension) | 0.902 | > 0.2 µM | 0.987 | > 10 µM | 0.985 | > 10.2 µM
NCI-H2087 (lung adenocarcinoma, semi-adherent) | 0.957 | > 0.2 µM | 0.975 | > 10 µM | 0.976 | > 10.2 µM
NCI-H2110 (non-small cell lung carcinoma, adherent) | 0.874 | > 0.2 µM | 0.961 | > 10 µM | 0.98 | > 10.2 µM
NCI-H2135 (non-small cell lung carcinoma, adherent) | 0.991 | > 0.2 µM | 0.99 | > 10 µM | 0.971 | > 10.2 µM
NCI-H2141 (small cell lung carcinoma, suspension) | 0.985 | > 0.2 µM | 0.99 | > 10 µM | 0.989 | > 10.2 µM
NCI-H2172 (non-small cell lung carcinoma, adherent) | 0.945 | > 0.2 µM | 0.98 | > 10 µM | 0.982 | > 10.2 µM
NCI-H2227 (small cell lung carcinoma, semi-adherent) | 0.936 | > 0.2 µM | 0.986 | > 10 µM | 0.986 | > 10.2 µM
NCI-H2291 (lung adenocarcinoma, adherent) | 0.899 | > 0.2 µM | 0.964 | > 10 µM | 0.984 | > 10.2 µM
NCI-H2342 (lung adenocarcinoma, adherent) | 0.874 | > 0.2 µM | 0.986 | > 10 µM | 0.986 | > 10.2 µM
NCI-H2347 (lung adenocarcinoma, adherent) | 0.946 | > 0.2 µM | 0.98 | > 10 µM | 0.983 | > 10.2 µM
NCI-H2405 (lung adenocarcinoma, adherent) | 0.969 | > 0.2 µM | 0.979 | > 10 µM | 0.986 | > 10.2 µM
NCI-H2444 (non-small cell lung carcinoma, adherent) | 0.902 | > 0.2 µM | 0.988 | > 10 µM | 0.988 | > 10.2 µM
NCI-H2452 (mesothelioma, adherent) | 0.83 | 0.161 µM | 0.962 | > 10 µM | 0.984 | > 10.2 µM
NCI-H3122 (lung adenocarcinoma, adherent) | 0.847 | 0.153 µM | 0.982 | > 10 µM | 0.952 | > 10.2 µM

Cell Line | AUC (Temsirolimus) | IC50 (Temsirolimus) | AUC (SL 0101-1) | IC50 (SL 0101-1) | AUC (XMD15-27) | IC50 (XMD15-27)
NCI-SNU-1 (stomach, suspension) | 0.976 | > 0.2 µM | 0.972 | > 10 µM | 0.942 | > 10.2 µM
NCI-SNU-5 (stomach, suspension) | 0.667 | 0.0366 µM | 0.989 | > 10 µM | 0.989 | > 10.2 µM
NCI-SNU-16 (stomach, suspension) | 0.985 | > 0.2 µM | 0.968 | > 10 µM | 0.991 | > 10.2 µM
NEC8 (testis, adherent) | 0.972 | > 0.2 µM | 0.981 | > 10 µM | 0.991 | > 10.2 µM
NH-12 (neuroblastoma, adherent) | 0.848 | 0.177 µM | 0.966 | > 10 µM | 0.984 | > 10.2 µM
NKM-1 (acute myeloid leukaemia, suspension) | 0.832 | 0.133 µM | 0.982 | > 10 µM | 0.89 | > 10.2 µM
NMC-G1 (glioma, adherent) | 0.717 | 0.0602 µM | 0.958 | > 10 µM | 0.957 | > 10.2 µM
NOMO-1 (acute myeloid leukaemia, suspension) | 0.709 | 0.0531 µM | 0.916 | > 10 µM | 0.981 | > 10.2 µM
NOS-1 (osteosarcoma, adherent) | 0.815 | 0.143 µM | 0.973 | > 10 µM | 0.878 | > 10.2 µM
NU-DUL-1 (B-cell lymphoma, suspension) | 0.436 | 0.00867 µM | 0.966 | > 10 µM | 0.955 | > 10.2 µM
NUGC-4 (stomach, adherent) | 0.906 | > 0.2 µM | 0.988 | > 10 µM | 0.987 | > 10.2 µM
NY (osteosarcoma, adherent) | 0.911 | > 0.2 µM | 0.982 | > 10 µM | 0.989 | > 10.2 µM
OACM5-1 (oesophagus, semi-adherent) | 0.959 | > 0.2 µM | 0.971 | > 10 µM | 0.883 | > 10.2 µM
OACp4C (oesophagus, adherent) | 0.792 | 0.111 µM | 0.982 | > 10 µM | 0.919 | > 10.2 µM
OAW-42 (ovary, adherent) | 0.854 | 0.179 µM | 0.984 | > 10 µM | 0.985 | > 10.2 µM
OC-314 (ovary, adherent) | 0.88 | 0.157 µM | 0.988 | > 10 µM | 0.986 | > 10.2 µM
OCI-AML2 (acute myeloid leukaemia, suspension) | 0.993 | > 0.2 µM | 0.995 | > 10 µM | 0.994 | > 10.2 µM
OCI-AML3 (acute myeloid leukaemia, suspension) | 0.985 | > 0.2 µM | 0.984 | > 10 µM | 0.974 | > 10.2 µM
OCI-AML5 (acute myeloid leukaemia, suspension) | 0.96 | > 0.2 µM | 0.989 | > 10 µM | 0.97 | > 10.2 µM
OCI-LY-19 (B-cell lymphoma, suspension) | 0.935 | > 0.2 µM | 0.988 | > 10 µM | 0.944 | > 10.2 µM
OCI-M1 (acute myeloid leukaemia, suspension) | 0.988 | > 0.2 µM | 0.994 | > 10 µM | 0.994 | > 10.2 µM
OCUB-M (breast, adherent) | 0.831 | 0.104 µM | 0.927 | > 10 µM | 0.952 | > 10.2 µM
OCUM-1 (stomach, adherent) | 0.883 | > 0.2 µM | 0.987 | > 10 µM | 0.987 | > 10.2 µM
OE19 (oesophagus, adherent) | 0.912 | > 0.2 µM | 0.985 | > 10 µM | 0.985 | > 10.2 µM

Cell Line | AUC (Temsirolimus) | IC50 (Temsirolimus) | AUC (SL 0101-1) | IC50 (SL 0101-1) | AUC (XMD15-27) | IC50 (XMD15-27)
OE21 (oesophagus, adherent) | 0.645 | 0.0368 µM | 0.969 | > 10 µM | 0.977 | > 10.2 µM
OE33 (oesophagus, adherent) | 0.813 | 0.134 µM | 0.94 | > 10 µM | 0.983 | > 10.2 µM
ONS-76 (medulloblastoma, adherent) | 0.587 | 0.0221 µM | 0.983 | > 10 µM | 0.953 | > 10.2 µM
OPM-2 (myeloma, suspension) | 0.949 | > 0.2 µM | 0.993 | > 10 µM | 0.983 | > 10.2 µM
OS-RC-2 (kidney, adherent) | 0.533 | 0.016 µM | 0.9 | > 10 µM | 0.976 | > 10.2 µM
OSC-20 (head and neck, adherent) | 0.862 | > 0.2 µM | 0.957 | > 10 µM | 0.975 | > 10.2 µM
OV-7 (ovary, adherent) | 0.763 | 0.11 µM | 0.964 | > 10 µM | 0.967 | > 10.2 µM
OV-17R (ovary, adherent) | 0.933 | > 0.2 µM | 0.981 | > 10 µM | 0.981 | > 10.2 µM
OV-56 (ovary, adherent) | 0.594 | 0.0224 µM | 0.988 | > 10 µM | 0.988 | > 10.2 µM
OV-90 (ovary, adherent) | 0.526 | 0.015 µM | 0.98 | > 10 µM | 0.982 | > 10.2 µM
OVCA420 (ovary, adherent) | 0.904 | > 0.2 µM | 0.982 | > 10 µM | 0.982 | > 10.2 µM
OVCA433 (ovary, adherent) | 0.719 | 0.0565 µM | 0.982 | > 10 µM | 0.984 | > 10.2 µM
OVCAR-4 (ovary, adherent) | 0.783 | 0.132 µM | 0.97 | > 10 µM | 0.974 | > 10.2 µM
OVCAR-5 (ovary, adherent) | 0.717 | 0.0593 µM | 0.982 | > 10 µM | 0.982 | > 10.2 µM
OVCAR-8 (ovary, adherent) | 0.749 | 0.0588 µM | 0.96 | > 10 µM | 0.99 | > 10.2 µM
OVISE (ovary, adherent) | 0.731 | 0.072 µM | 0.948 | > 10 µM | 0.977 | > 10.2 µM
OVK-18 (ovary, adherent) | 0.264 | 0.00244 µM | 0.974 | > 10 µM | 0.961 | > 10.2 µM
OVKATE (ovary, adherent) | 0.844 | > 0.2 µM | 0.979 | > 10 µM | 0.979 | > 10.2 µM
OVMIU (ovary, adherent) | 0.963 | > 0.2 µM | 0.95 | > 10 µM | 0.976 | > 10.2 µM
OVTOKO (ovary, adherent) | 0.625 | 0.0304 µM | 0.963 | > 10 µM | 0.968 | > 10.2 µM
P12-ICHIKAWA (T-cell lymphoblastic leukaemia, suspension) | 0.994 | > 0.2 µM | 0.994 | > 10 µM | 0.985 | > 10.2 µM
P30-OHK (lymphoblastic leukaemia, suspension) | 0.881 | 0.149 µM | 0.991 | > 10 µM | 0.958 | > 10.2 µM

IC50 is the fitted dose that halves viability relative to control wells, and lower means more sensitive; a limit (>, <) means that the fit lies beyond the doses tested. AUC sums up the same curve from the lowest dose to the 256-fold higher top dose; values near 1 show little effect. For part of these data: A top dose marked as inferred was derived from the fitted curves, not read from the paper.
